Assay results reported in ChEMBL document CHEMBL4888484, “Replenishing the malaria drug discovery pipeline: Screening and hit evaluation of the MMV Hit Generation Library 1 (HGL1) against asexual blood stage Plasmodium falciparum ,using a nano luciferase reporter read-out” (2022).
Values joined by “and” are separate entries in the source; they are usually repeats but may differ in a detail not shown here. Identical values can stand only once. The campaign covered roughly 150,000 compounds. About 540 (0.36%) showed an effect of 50% or more. This is one part of the list.

System: Plasmodium falciparum
Experiment: Primary screen in NF54 nanoGlo assay, in single point, at 2uM, 72h; a lower Z score goes with more inhibition
Type: functional, Erythrocyte
Conditions: timepoint 72 hour

Structure (SMILES)	% Inhibition	Z score	% Inhibition (2 µM)
Cc1ccccc1-c1noc(=O)n1Cc1nc(C(C)C)no1	-5%	0.49	
CC(C)(c1ccccc1)c1noc([C@H]2C[C@H]3CC[C@@H]2N3)n1	-1%	0.16	
Nc1ccc2c(c1)CC1(C(=O)N(Cc3ccccc3)C(=O)N=C1O)C1CCCCCN21 (stereo not drawn)			0% and -8%
Clc1cnc(Cn2cnc3c2CCNC32CCOCC2)c(Cl)c1	-9%	1.51	
CCc1ccc(Cn2nnc(C(=O)N[C@H]3CCCn4ncnc43)c2C)cc1	4%	-0.56	
CCCCn1c(C)c(CC(=O)N2CC[C@H](N(C)C)C2)c2c1CCCC2=O	-13%	1.85	
CCCc1ccc(CN2CCN([C@H]3CN4CCC3CC4)CC2)o1	-7%	0.66	
Cc1ccc2occ(CC(=O)N3CCC[C@H](N(C)Cc4nccc(C)n4)C3)c2c1	10%	-1.27	
Cc1ccc(CC(=O)N2CCN(Cc3cc(C)no3)CC2)cn1	-10%	1.51	
O=C(N[C@H]1CN2CCC1CC2)c1cc(Br)cc2nc[nH]c12	-23%	2.66	
Cc1noc(C)c1C(=O)N1CC[C@@H]2CN(Cc3cccnc3)[C@@H]2C1	-20%	2.59	
COc1ccccc1CNC(=O)Oc1ccccc1	-5%	0.66	
CCc1nc(CN2CCN3C(=O)OC[C@H]3C2)n[nH]1	-11%	2.06	
CCc1nc(NCC23COCCN2CCOC3)c2ccsc2n1	-5%	1.03	
O=C(c1cnc2ccccc2n1)N1CCC2(CC1)OCCO2	-6%	1.04	
O=C(NCCCn1ccnc1)C(Cl)(Cl)Cl	-5%	1	
O=C(NC[C@H]1C[C@@H]2CC[N@]1C[C@@H]2CN1CCN(c2ccccn2)CC1)Nc1ccccc1	6%	-0.97	
Cc1cc(=O)c(C(=O)N[C@H]2COC[C@@H]2N2CCOCC2)cn1C	-7%	1.06	
O=C(Nc1ccc2c(c1)OCCCO2)c1cnn(Cc2ccccc2)c1	-2%	0.27	
CO[C@@H](Cn1cc(C(N)=O)cn1)C1CCCC1	-12%	1.58	
CC(C)c1cc(NCc2cn(C(C)C)c(=O)[nH]c2=O)ncn1	-14%	1.56	
O=C(Cn1nnc2ccccc21)Nc1ccc(-c2noc(=O)[nH]2)cc1	-3%	0.39	

Structure (SMILES)	% Inhibition	Z score	% Inhibition (2 µM)
COc1ccccc1N1CCN2c3c(F)cccc3CC3(C(=O)NC(=O)N(c4ccccc4)C3=O)C2C1 (stereo not drawn)	0%	0.02	
O=C(O)[C@H]1CN(Cc2ccccc2)CC12CCC2	-10%	1.49	
O=C(NCc1cccc(Cl)c1)c1cn(CCN2CCNCC2)nn1	11%	-2.23	
C1CCN(C2(c3nc([C@H]4CCOC4)no3)CCCCC2)CC1	-1%	0.16	
C[C@H](OC(=O)c1ccc2cn[nH]c2c1)C(=O)Nc1ccc(C#N)c(Cl)c1	3%	-0.37	
C[C@H](NC(=O)N1CCN2CCC1CC2)c1ccc(OC(F)F)cc1	-3%	0.37	
COc1c(Br)cccc1CCNC1CCOC1C (stereo not drawn)	-8%	1.26	
CC(C)Oc1ccccc1-c1ccc2c(c1)CNCC2	10%	-0.98	
Cn1ncnc1CNC(C)(C)Cc1ccc(C(F)(F)F)cc1	-5%	0.7	
CC(CC(=O)O)CC(=O)N1C2CCC1c1cnc(C(C)C)nc1C2 (stereo not drawn)	-9%	0.98	
CN1C[C@@H]2CCCN(S(=O)(=O)c3ccoc3)[C@@H]2C1	-2%	0.25	
COc1cc(-c2c(C#N)c(N)nc3c2N2CCC3CC2)ccc1F	-3%	0.3	
CCc1nccn1CC(C)N1C[C@H]2CC=CC[C@H]2C1 (stereo partly drawn)	-12%	1.19	
O=C1CN=C(c2ccccc2)c2cc(Br)ccc2N1	-1%	0.14	
N#Cc1nc(C2CC2)oc1N1CCNCC1	3%	-0.61	
CC(C)NC(C)C(O)c1ccc(Br)cc1 (stereo not drawn)	-9%	1.39	
Cc1ccccc1[C@H]1C[C@@H](O)[C@@H](O)[C@@H]1NCC1CCCC1	-3%	0.43	
C=CCC[C@H](C)Nc1ccc2c(c1)oc(=O)n2C	-20%	2.22	
CC(C)N(C)C(=O)CN(C)[C@@H](C)Cc1cnccn1	6%	-1.06	
CCC1CN2CCCC2CN1S(=O)(=O)CC (stereo not drawn)	-7%	1.05	
O=C1C2CCN(CC2)[C@H]1Cc1ccccc1F	-18%	3.41	
CCc1cnc(N2CCc3c(cnc(C)c3-c3noc(CNC(C)=O)n3)C2)nc1	4%	-0.47	

Structure (SMILES)	% Inhibition	Z score	% Inhibition (2 µM)
COC(c1ccccc1)C(C)NCCO (stereo not drawn)	2%	-0.23	
COc1ccc(-c2csc(-n3cc(C4=CCN(CCO)CC4)cn3)n2)cc1	50%	-5.49	
O=C(c1ccc(F)c(F)c1)N1C2CCC1c1cncnc1C2 (stereo not drawn)	-1%	0.14	
N#Cc1ccc(N2CCC3(CC2)OCCO3)cc1C(F)(F)F	-14%	1.86	
COc1ccc2c(c1)[C@@]1(CCN(C(=O)c3ccc(F)cc3)C1)C(=O)N2	-15%	1.82	
CC(C)C(=O)N1CC[C@@H]2COCCN(Cc3ccncc3)[C@@H]2C1	-11%	2.03	
O=C(c1cccc(F)c1)N1CCC2(CC1)N(c1ccccc1)C(=O)C[S@+]2[O-]	-8%	1.61	
CC(=O)Nc1ccc2n(c1)cc(-c1ccc(OC(=O)N(C)C)cc1)[n+]2C	-14%	1.69	
CN1CCC(OC(=O)Cc2ccccc2)CC1	-12%	1.11	
O[C@H]1C[C@@H]2CN(Cc3ccncc3)C[C@@H]2C[C@@H]1O	-1%	0.18	
CC1CCC(NC(=O)[C@H]2CCCN(S(=O)(=O)c3ccc4[nH]c(=O)oc4c3)C2)CC1 (stereo partly drawn)	-13%	1.34	
CC(C)C[C@H](CN)CC(=O)OCCOC1CCC1	6%	-0.7	
Cc1ccc(NS(=O)(=O)CCCS(=O)(=O)F)nc1	0%	0.06	
C[C@H](NC(=O)Nc1ccccc1)C(=O)N1CCC2(CC1)OCCO2	-2%	0.35	
COc1ccc2c(c1)c(C(=O)Nc1nc[nH]n1)cn2C(C)C	-3%	0.37	
CC(C)Cn1cncc1Cn1cnc2cn(C)nc2c1=O	-10%	1.29	
CCCc1nc(CN[C@@H](C)Cn2ccnc2CC)cs1	-5%	0.61	
O=C(COc1ccc2c(c1)OCO2)N1C[C@H](O)[C@@H](N2CCCOCC2)C1	7%	-1.25	
COc1ccc(C(=O)Nc2cccc(-c3noc(=O)[nH]3)c2)c(O)c1	1%	-0.1	
c1ccc(COCc2cn(CCc3c[nH]cn3)nn2)cc1	5%	-0.68	
COc1c(C)cc(C(=O)[C@H]2CCCN(C3CCCC3)C2)cc1C	-1%	0.13	
CCn1nc(-c2ccc(OC)cc2F)cc1C(=O)N1CCC2(CC1)OCCO2	-16%	1.95	

Structure (SMILES)	% Inhibition	Z score	% Inhibition (2 µM)
CN1C2CCC1CN(c1ncc(Cl)cn1)CC2 (stereo not drawn)	4%	-0.48	
O=C(c1ccc(-n2cnnn2)cc1)N1CCC2(CC1)OCCO2	-18%	3.41	
Cc1ccc(CN2CC3CC2(C(F)(F)F)C3)nn1	-8%	0.74	
C=CCCC(=O)NCC#CCN1CCCC1	-7%	1.04	
COc1ccc(N2C(=O)NC(=O)C3(Cc4ccccc4N4CC(C)CC(C)C43)C2=O)cc1 (stereo not drawn)	7%	-0.89	
CN(C)Cc1ccccc1-c1ccc2n(c1=O)C[C@H]1C[C@@H]2CN(CC2CCCCC2)C1	6%	-0.95	
O=C(Cn1ccc(C(F)(F)F)n1)N1C2CCC1c1ccccc12	-3%	0.5	
Cc1cccc(S(=O)(=O)N2C3CCC2C(C(=O)O)C3)c1Cl (stereo not drawn)	-10%	1.05	
O=C(Cc1ccc(Cl)c(Cl)c1)N1CCC2(CC1)OCCO2	-11%	1.58	
CCO[C@@H](C)CNC(=O)N1CCC(N(C(=O)CC)c2ccccc2)CC1	-3%	0.63	
O=C(c1ccc(F)c(F)c1)N1C[C@H]2COc3ccccc3C[C@@]2(C(=O)O)C1	-7%	1.31	
O=C(c1ccncc1)N1C[C@H](c2cc(F)cc(F)c2)[C@@H]2[C@H]1C1CCN2CC1	6%	-0.89	
CN1CC[C@@H]2CN(c3nnc(-c4ccon4)s3)C[C@@H]21	-8%	1.15	
CCCn1cc(C(=O)Nc2cc(N(C)C)n3nc(C)cc3n2)nn1	10%	-1.33	
CN1CC=C(c2noc(CCC(=O)NCc3ccccc3Cl)n2)CC1	-10%	1.18	
CCc1ncc(CN[C@](C)(CO)Cc2ccc(Cl)cc2)o1	-10%	1.57	
Cc1cc(C)c(C#N)c(N2CCN3CCN(C)C(=O)[C@@H]3C2)n1	-20%	3.77	
CC(C)S(=O)(=O)N1CC[C@@H]2COCCN(C)[C@@H]2C1	-9%	1.17	
Cc1ccccc1CC(C)NCC1CCCS1(=O)=O (stereo not drawn)	-10%	1.11	
Cc1cc(C)c(CNc2ccc(Br)cn2)c(=O)[nH]1	-10%	1.26	
O=C(c1cccc(-c2ncccn2)c1)N1CCCN2CCC[C@H]2C1	7%	-0.89	
